Broadly, the inhibition is the relative decrease from the control value, in per cent.

The values below come from ChEMBL document CHEMBL5606458, “ASAP - ZIKV NS2B-NS3 protease fluorescence single point” (2024).

The target in this assay is Nonstructural protein 3 (Zika virus) (UniProt A0A024AXB9).
Where [1] appears, read: PRVABC59, Concentration 15.0 uM, Number of replicates 1.0.
Setting [2] is: PRVABC59, Concentration 50.0 uM, Number of replicates 1.0.

The campaign covered roughly 2,700 compounds. About 160 (5.9%) showed an effect of 50% or more. The list shows a part of the results.

Sequence of UniProt A0A024AXB9 (A0A024AXB9 as listed by the source): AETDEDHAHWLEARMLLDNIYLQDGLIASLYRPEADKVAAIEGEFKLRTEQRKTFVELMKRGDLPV

In the case of `N#Cc1cc(Cl)c(NC(=O)c2cc(Cl)ccc2NS(=O)(=O)c2ccc(Oc3ccccc3Cl)cc2)c(Cl)c1`, the inhibition under setting [1] was 24%. On to `Cc1cc(CO)c2cccc(C[C@H](NC(=O)[C@@H](N)CC(N)=O)C(=O)O)c2n1`, for which the inhibition was 3.76% (PRVABC59, Concentration 49.95 uM, Number of replicates 2.0, Standard deviation 1.4050805088881784 %) and 16.9% (PRVABC59, Concentration 99.9 uM, Number of replicates 2.0, Standard deviation 0.43156080086596493 %). For `CN1CCN(c2ccc(CNS(=O)(=O)c3ccc(C(N)=O)cc3)cc2)CC1`, the inhibition was -2.93% (PRVABC59, Concentration 49.5 uM, Number of replicates 2.0, Standard deviation 3.1298940912505486 %) and -9.18% (PRVABC59, Concentration 99.01 uM, Number of replicates 2.0, Standard deviation 2.0491409994990377 %). With `O=S1(=O)CCC(CN2CC[C@H](c3c[nH]c4ccccc34)C2)CC1`, the inhibition (PRVABC59, Concentration 49.5 uM, Number of replicates 2.0, Standard deviation 2.6145692949548804 %) came to 0.007%; the inhibition (PRVABC59, Concentration 99.01 uM, Number of replicates 2.0, Standard deviation 2.809024064390927 %) amounted to 5.11%; the inhibition (PRVABC59, Concentration 198.0 uM, Number of replicates 2.0, Standard deviation 2.251024066691432 %) stood at 13.7%. Regarding `CSc1cccc(CN(C)C(=O)c2cc(Cl)ccc2NS(=O)(=O)c2ccc(Oc3ccccc3Cl)cc2)c1`, the inhibition under setting [1] worked out at 13.8%. On to `Cn1cc(CNC(=O)c2ccccc2[C@@H]2CCCCN2)cn1`, for which the inhibition by setting is: (PRVABC59, Concentration 49.5 uM, Number of replicates 2.0, Standard deviation 2.1558812651007577 %) -3.96%; (PRVABC59, Concentration 99.01 uM, Number of replicates 2.0, Standard deviation 1.0587457776267595 %) -2.54%; (PRVABC59, Concentration 198.0 uM, Number of replicates 2.0, Standard deviation 0.05455370060074293 %) -3.02%. Take `O=Cc1ccc(N2CCC(C(=O)NCc3c(Cl)cccc3Cl)CC2)cc1`: under “PRVABC59, Concentration 10.0 uM, Number of replicates 1.0”, the inhibition is 5.89%. Regarding `NC(=O)[C@@H]1Cc2ccccc2CN1C(=O)c1cc(Cl)ccc1NS(=O)(=O)c1ccc(Oc2ccccc2Cl)cc1`, under setting [1], the inhibition is 20.5%. In the case of `O=C(Nc1cc(C(F)(F)F)ccn1)c1cc(Cl)ccc1NS(=O)(=O)c1ccc(Oc2ccccc2Cl)cc1`, under setting [1], the inhibition came to 25.3%.

On to `O=C(c1cc(Cl)ccc1NS(=O)(=O)c1ccc(Oc2ccccc2Cl)cc1)N1CCNC(=O)C12CCCCC2`, for which the inhibition under setting [1] was 17.6%.

As to `COc1cccc(Cn2ncc(C3CCNCC3)c2C)n1`, the inhibition (PRVABC59, Concentration 49.5 uM, Number of replicates 2.0, Standard deviation 0.798878467099078 %) was determined as 1.12%; the inhibition (PRVABC59, Concentration 99.01 uM, Number of replicates 2.0, Standard deviation 1.6991071025640905 %) was found to be 0.912%; the inhibition (PRVABC59, Concentration 198.0 uM, Number of replicates 2.0, Standard deviation 0.9658081834438721 %) came out at 1.49%. As to `Cc1cnccc1NC(=O)c1cccnc1OCC(C)C`, the inhibition is, setting by setting: (PRVABC59, Concentration 49.5 uM, Number of replicates 2.0, Standard deviation 2.430418671336475 %) -1.57%; (PRVABC59, Concentration 99.01 uM, Number of replicates 2.0, Standard deviation 1.794495578134735 %) 1.39%; (PRVABC59, Concentration 198.0 uM, Number of replicates 2.0, Standard deviation 0.3139872779103988 %) 5.17%. In the case of `Cc1cc(NC(=O)C2CCN(c3ccc(C=O)cc3)CC2)ncc1I`, the inhibition under setting [2] worked out at 22.7%.

With `Cc1cc(CO)c2cccc(Cc3cccc(NC(=O)C4(C(N)=O)CC4)c3)c2n1`, the inhibition amounted to 1.64% (PRVABC59, Concentration 49.95 uM, Number of replicates 2.0, Standard deviation 1.9747889432508479 %) and 8.21% (PRVABC59, Concentration 99.9 uM, Number of replicates 2.0, Standard deviation 1.6032438638183952 %). `Cc1cc(CO)c2cccc(NC(=O)[C@@H]3CC(=O)CCN3)c2n1`: the inhibition reads like this: (PRVABC59, Concentration 49.95 uM, Number of replicates 2.0, Standard deviation 16.037989968188715 %) 12.9%; (PRVABC59, Concentration 99.9 uM, Number of replicates 2.0, Standard deviation 20.92566279936443 %) 23%. `CCCOc1ccc(NC(=O)C2CCN(c3ccc(C=O)cc3)CC2)cc1`: the inhibition under setting [2] was determined as 2.4%. With `Cc1cnccc1NC(=O)c1cc(C#N)n(C)c1C`, the inhibition runs as follows: (PRVABC59, Concentration 49.5 uM, Number of replicates 2.0, Standard deviation 1.1486465227870428 %) 0.53%; (PRVABC59, Concentration 99.01 uM, Number of replicates 2.0, Standard deviation 4.376343134650394 %) 0.146%; (PRVABC59, Concentration 198.0 uM, Number of replicates 2.0, Standard deviation 2.5516361265205956 %) 0.012%. For the compound `Cc1ccc(CNC(=O)c2cc(Cl)ccc2NS(=O)(=O)c2ccc(Oc3ccccc3Cl)cc2)c(F)c1F`, the inhibition under setting [1] came to 23.2%. As for `CN1C(=O)c2ccc(NC(=O)C3CCN(c4ccc(C=O)cc4)CC3)cc2C1=O`, under setting [2], the inhibition worked out at 28.5%. Still for that read-out and setting: in the case of `O=Cc1ccc(N2CCC(C(=O)Nc3cc(C(F)(F)F)ccc3Cl)CC2)cc1` it was 20.6%; in that of `CC(C)(O)CN(Cc1ccccc1)C(=O)C1CCN(c2ccc(C=O)cc2)CC1`, 25.6%. On the same count and under the same terms, in the case of `Cc1cc(NC(=O)C2CCN(c3ccc(C=O)cc3)CC2)c(F)cc1Br` it was 25.4%. On to `NC(=O)c1ccc(CNC(=O)NCCc2ccc(OCc3ccccc3)cc2)cc1`, for which the inhibition is, setting by setting: (PRVABC59, Concentration 49.5 uM, Number of replicates 2.0, Standard deviation 1.2785165573830564 %) -5.52%; (PRVABC59, Concentration 99.01 uM, Number of replicates 2.0, Standard deviation 1.3428575991449991 %) -5.78%; (PRVABC59, Concentration 198.0 uM, Number of replicates 2.0, Standard deviation 0.9941713266177634 %) -7.37%.

Regarding `NCc1cccc(NC(=O)[C@H]2C[C@@H](NC(=O)OCc3ccccc3)C2)c1`, the inhibition (PRVABC59, Concentration 49.5 uM, Number of replicates 2.0, Standard deviation 2.4695899523424996 %) stood at 0.708%; the inhibition (PRVABC59, Concentration 99.01 uM, Number of replicates 2.0, Standard deviation 2.6714237077221363 %) was found to be 5.65%; the inhibition (PRVABC59, Concentration 198.0 uM, Number of replicates 2.0, Standard deviation 2.499126716660025 %) stood at 13.9%.
